Test results reported in PMC4336329 (PLoS ONE, 2015).
About 2,200 (0.71%) of roughly 310,000 compounds showed an effect of 50% or more. Effects have a minus sign here. The list shows a part of the results.

biological target: human ether-à-go-go-related gene (hERG) potassium channel (human, UniProt Q12809); experiment: primary screen, population patch clamp on CHO cells stably expressing hERG
Sequence (Q12809 whole entry, looked up): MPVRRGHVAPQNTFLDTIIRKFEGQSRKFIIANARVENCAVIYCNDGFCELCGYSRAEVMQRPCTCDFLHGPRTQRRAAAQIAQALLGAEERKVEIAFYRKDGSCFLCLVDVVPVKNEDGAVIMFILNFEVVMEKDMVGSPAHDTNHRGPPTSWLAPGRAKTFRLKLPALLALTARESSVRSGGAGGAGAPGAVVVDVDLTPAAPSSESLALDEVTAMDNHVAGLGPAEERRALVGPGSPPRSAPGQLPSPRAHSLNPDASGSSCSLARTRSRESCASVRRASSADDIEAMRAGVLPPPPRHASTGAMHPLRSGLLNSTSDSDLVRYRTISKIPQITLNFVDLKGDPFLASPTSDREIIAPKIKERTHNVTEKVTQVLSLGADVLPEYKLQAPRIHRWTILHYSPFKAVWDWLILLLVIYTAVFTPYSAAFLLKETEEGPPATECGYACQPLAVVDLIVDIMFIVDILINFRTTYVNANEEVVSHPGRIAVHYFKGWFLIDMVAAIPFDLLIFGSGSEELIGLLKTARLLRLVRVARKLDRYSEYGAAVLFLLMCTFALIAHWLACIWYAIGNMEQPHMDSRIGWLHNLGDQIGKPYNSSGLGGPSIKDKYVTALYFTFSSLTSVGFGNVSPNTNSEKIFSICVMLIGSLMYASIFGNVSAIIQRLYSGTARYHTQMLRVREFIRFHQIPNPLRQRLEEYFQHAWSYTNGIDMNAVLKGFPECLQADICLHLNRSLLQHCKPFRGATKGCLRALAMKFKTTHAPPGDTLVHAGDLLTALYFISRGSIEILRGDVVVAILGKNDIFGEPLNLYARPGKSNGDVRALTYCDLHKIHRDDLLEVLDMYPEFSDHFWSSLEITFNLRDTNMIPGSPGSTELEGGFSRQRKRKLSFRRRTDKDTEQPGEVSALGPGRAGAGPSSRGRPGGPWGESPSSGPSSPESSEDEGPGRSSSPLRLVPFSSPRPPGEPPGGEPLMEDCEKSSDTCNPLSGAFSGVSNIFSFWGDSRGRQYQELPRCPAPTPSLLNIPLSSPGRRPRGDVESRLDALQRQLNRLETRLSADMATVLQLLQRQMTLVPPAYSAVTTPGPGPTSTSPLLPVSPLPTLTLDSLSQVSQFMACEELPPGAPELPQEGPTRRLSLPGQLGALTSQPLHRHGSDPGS

Compared with O=C(N/C(=C\c1ccc(Cl)cc1)C(=O)N1CCCCC1)c1ccco1, C/C(CC(=O)Nc1ccc(C)c(Cl)c1)=N\NC(=O)c1ccco1 is lower in “hERG current change (%, negative = inhibition) at 1uM” value: 16.2% for the first, 0.72% for the second.

First: CC(C)C(NC(=O)c1ccccc1F)C(=O)NCCc1ccccn1 (stereo not drawn)
Second: O=C(NC(Cc1ccccc1)C(=O)NCCc1ccccn1)c1ccccc1 (stereo not drawn)
The “hERG current change (%, negative = inhibition) at 1uM” value of the first is higher: 21.3% for the first, 8.66% for the second.

First: CCC1C(=O)NCCN1C(=O)c1ccc2nc(Cc3ccc(OC)cc3)oc2c1 (stereo not drawn)
Second: COc1ccc(CNC(=O)COc2ccc(C)nc2[N+](=O)[O-])cc1
The “hERG current change (%, negative = inhibition) at 1uM” value of the first is higher: 19.7% for the first, 2.18% for the second.

First: CCc1cccc(NC2c3ccccc3C(=O)N2c2cccnc2)c1 (stereo not drawn)
Second: CCNC(=O)COC(=O)c1cc(-c2ccccc2)nn1-c1ccccc1
The “hERG current change (%, negative = inhibition) at 1uM” value of the first is lower: 2.77% for the first, 12.3% for the second.

Compared with O=C(NNC(=O)C1COc2ccccc2O1)c1ccccc1 (stereo not drawn), O=C(CN1C(=O)CC(c2ccccc2)Sc2ccccc21)NCC1CCCO1 (stereo not drawn) is higher in “hERG current change (%, negative = inhibition) at 1uM” value: -4.27% for the first, 8.03% for the second.

Going from Cn1c(N)c(C(=O)Nc2c(Cl)cccc2Cl)sc1=S to Cc1ccc(/C=N/Nc2cccc(C(=O)O)c2)s1, the “hERG current change (%, negative = inhibition) at 1uM” value rises from 15% to 20.8%.

Compared with COC(=O)CSc1nc(SCc2ccc(C)cc2)nc2c1CCCC2, O=C(CSc1nc2ccccc2nc1N1CCCCC1)Nc1ccc(F)cc1 is lower in “hERG current change (%, negative = inhibition) at 1uM” value: 4.94% for the first, 2.12% for the second.

Compared with COc1ccc(CCN(C)C2CCCN(S(=O)(=O)c3ccc(C)cc3)C2)cc1OC (stereo not drawn), COc1ccc(C(=O)Nc2ccc(OC)c(OC)c2)cc1 is higher in “hERG current change (%, negative = inhibition) at 1uM” value: -82.1% for the first, 6.59% for the second.

Compared with COc1ccc(-c2nn(CCC#N)cc2/C=N/O)cc1, CCn1cc(CN2CCc3c([nH]c4ccccc34)C2c2cccc(OC)c2)c(C)n1 (stereo not drawn) is lower in “hERG current change (%, negative = inhibition) at 1uM” value: 18.4% for the first, -3.81% for the second.

First: CNC(=O)CC1C(=O)N(c2ccc(Cl)cc2)C(=S)N1NC(=O)c1cccc(F)c1 (stereo not drawn)
Second: CCCCCCC(=O)N(O)C1CC(=O)N(c2ccc(Cl)cc2)C1=O (stereo not drawn)
The “hERG current change (%, negative = inhibition) at 1uM” value of the first is lower: 10.6% for the first, 11.5% for the second.

Going from C=CCNCc1cccn1-c1sc2c(c1C#N)CCCC2 to O=C(NC1CCCCC1)c1ccc2c(c1)S(=O)(=O)c1ccccc1C2=O, the “hERG current change (%, negative = inhibition) at 1uM” value rises from 4.13% to 9.15%.

Compared with O=C(CCCC(=O)OCC(=O)c1ccc(F)cc1)Nc1cc(C(F)(F)F)ccc1Cl, CCOc1ccc(OCCOC(=O)CNC(=O)c2ccc(Cl)cc2Cl)cc1 is higher in “hERG current change (%, negative = inhibition) at 1uM” value: 12% for the first, 12.5% for the second.

Going from CSc1nc(NC(C)C)nc(N2CCOCC2)n1 to COc1ccc(S(=O)(=O)N(C)CC(=O)NCCN2CCOCC2)cc1C, the “hERG current change (%, negative = inhibition) at 1uM” value rises from 3.59% to 19.1%.

First: C/C(=N/OC(=O)c1ccc(C)cc1)c1cccs1
Second: Cc1ccc(CNC(=O)CCOc2ccc(C(C)(C)C)cc2)cc1
The “hERG current change (%, negative = inhibition) at 1uM” value of the first is higher: 10.7% for the first, 8.7% for the second.

Going from CC(C)CN(C(=O)CC(C)c1ccccc1)c1c(N)n(Cc2ccccc2)c(=O)[nH]c1=O (stereo not drawn) to Br.N=c1n(CC(=O)c2ccc([N+](=O)[O-])cc2)c2ccccc2n1Cc1ccccc1, the “hERG current change (%, negative = inhibition) at 1uM” value falls from 7.76% to -8.69%.

Compared with Cc1sc2nc(-c3cccnc3)nc(Cl)c2c1-c1ccccc1, C(=N\Nc1ccccc1)/c1nc2ccccc2s1 is lower in “hERG current change (%, negative = inhibition) at 1uM” value: 11.3% for the first, 7.08% for the second.

First: COCCn1c(SCC(=O)Nc2cc(C)cc(C)c2)nc2ccccc2c1=O
Second: CCCn1c(SCC(=O)NCc2ccco2)nc2c1c(=O)n(C)c(=O)n2C
The “hERG current change (%, negative = inhibition) at 1uM” value of the first is lower: -11.6% for the first, -4.34% for the second.

Compared with Cc1cccc(-n2c(O)c(C=Nc3ccc(S(N)(=O)=O)cc3)c(=O)[nH]c2=O)c1, Cc1c(NS(=O)(=O)c2ccc(Cl)c(C(=O)OCC(=O)NCc3ccco3)c2)c(=O)n(-c2ccccc2)n1C is lower in “hERG current change (%, negative = inhibition) at 1uM” value: 15.5% for the first, 1.27% for the second.

First: Cl.N=c1sccn1Cc1ccc(Cl)cc1Cl
Second: S=c1[nH]c2ccc(Cl)cc2s1
The “hERG current change (%, negative = inhibition) at 1uM” value of the first is lower: -3.04% for the first, 8.54% for the second.

First: Cc1ccc(OCCC(=O)OCC(=O)c2c(N)n(C)c(=O)n(C)c2=O)cc1
Second: CCc1nnc(NC(=O)COc2ccc([N+](=O)[O-])cc2)s1
The “hERG current change (%, negative = inhibition) at 1uM” value of the first is lower: -11.3% for the first, 11.4% for the second.

Going from O=c1ccc2ccc(Oc3ccc([N+](=O)[O-])cc3[N+](=O)[O-])cc2o1 to COc1ccc(CCNC(=O)CN2C(=O)NC(Cc3c[nH]c4ccccc34)C2=O)cc1 (stereo not drawn), the “hERG current change (%, negative = inhibition) at 1uM” value rises from -16.6% to 9.58%.

Compared with Cc1cc(C(=O)N/N=C\c2cc(C(C)(C)C)c(O)c(C(C)(C)C)c2)n[nH]1, Cc1cc(/C=N/NS(=O)(=O)c2ccc(F)c(Cl)c2)no1 is lower in “hERG current change (%, negative = inhibition) at 1uM” value: 12.2% for the first, 8.09% for the second.

First: CCS(=O)(=O)N1Cc2ccccc2CC1C(=O)Nc1nc2ccccc2[nH]1 (stereo not drawn)
Second: COc1ccc(N(C)S(=O)(=O)c2cccc(C(=O)Nc3nnc(C4CC4)s3)c2)cc1
The “hERG current change (%, negative = inhibition) at 1uM” value of the first is lower: 5.11% for the first, 8.59% for the second.

First: Cc1ccc(-c2cc(C(F)F)n3ncc(C(=O)N4CCC5(CC4)OCCO5)c3n2)cc1
Second: COc1cccc(C(=O)N2CCN(Cc3ccccc3Br)CC2)c1.O=C(O)C(=O)O
The “hERG current change (%, negative = inhibition) at 1uM” value of the first is lower: 10.9% for the first, 21.9% for the second.

Compared with Cc1c(N)cc[n+](CC(=O)c2ccccc2)c1C.[Br-], N/C(Cc1ccccc1)=N\OC(=O)c1cccc2ccccc12 is higher in “hERG current change (%, negative = inhibition) at 1uM” value: 15.9% for the first, 41.7% for the second.

First: CCN(CC)CCN1C(=O)C(O)=C(C(=O)c2ccco2)C1c1ccccn1 (stereo not drawn)
Second: CCN(CCN1CCCC1)C(=O)c1cc(COc2ccccc2SC)on1
The “hERG current change (%, negative = inhibition) at 1uM” value of the first is higher: 7.68% for the first, 0.395% for the second.

Compared with O=C(Oc1ccc(-c2nnco2)cc1)N(c1ccccc1)c1ccccc1, Fc1ccccc1/C=N/Nc1ccc(Cl)nn1 is higher in “hERG current change (%, negative = inhibition) at 1uM” value: -6.62% for the first, 10.3% for the second.

First: COc1ccc(-c2csc(Nc3cc(C)ccn3)n2)cc1C
Second: Cc1ccc(NC(=O)C2C3C=CC4(CN(Cc5cccnc5)C(=O)C24)O3)cc1 (stereo not drawn)
The “hERG current change (%, negative = inhibition) at 1uM” value of the first is higher: 14.2% for the first, 9.05% for the second.

In the case of Cc1cc(OCCCCCNCCO)ccc1Cl, the “hERG current change (%, negative = inhibition) at 1uM” value is reported as -3.29%.
